Results reported in the supplement of paper PMC9151546.
Many values rest on one well or one pass, so single values are uncertain.

Legend:
[1] = test system: CHO-K1; test: relative survival (nuclei to bead ratio vs DMSO control) (% of vehicle control); higher = more surviving cells
Experimental: (§1)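 Flow-cytometric in vitro micronucleus assay (Litron MicroFlow) in CHO-K1 cells in 96-well plates, 19 concentrations (4.5-200 µM, n=1 per concentration). Without S9, cells were exposed for 24 h and sampled at 48 h. With Aroclor 1254-induced rat liver S9, cells were exposed for 3-4 h and sampled at 27-28 h. Read-outs are %MN and %hypodiploid nuclei relative to nucleated events, and relative survival as the nuclei-to-bead ratio versus the 1% DMSO vehicle control (x100).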

[2] = test system: CHO-K1; test: hypodiploid nuclei frequency (% of nucleated events); higher = more hypodiploid events (aneugenic)
Experimental: as §1

[3] = test system: CHO-K1; test: micronucleus frequency (% of nucleated events); higher = more micronuclei (genotoxic)
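Throughout, for hypodiploid nuclei frequency (% of nucleated events): hypodiploid nuclei gated on a flow cytometer with 488 nm excitation after SYTOX Green staining, cultures at 37 °C, positive controls vinblastine without S9 and cyclophosphamide with S9.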
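Throughout, for micronucleus frequency (% of nucleated events): cells lysed with nuclei stained by SYTOX Green, then micronucleus-gated events counted against nucleated events by flow cytometry with 488 nm excitation.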
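Throughout, for relative survival (nuclei to bead ratio vs DMSO control): Lysed-cell nuclei stained with SYTOX Green and counted against counting beads by flow cytometry at 488 nm excitation, with vinblastine (no S9) and cyclophosphamide (plus S9) as positive controls.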

Oc1ccccc1O [Catechol]
Details	hypodiploid nuclei frequency, [2] [%]	micronucleus frequency, [3] [%]	relative survival, [1]
concentration: 4.55 (µM), S9 metabolic activation: with S9, exposure time: 3-4 hours	0.36	1.52	115
concentration: 4.55 (µM), S9 metabolic activation: without S9, exposure time: 24 hours	0.28	2.22	143
concentration: 5.69 (µM), S9 metabolic activation: with S9, exposure time: 3-4 hours	0.34	1.06	108
concentration: 5.69 (µM), S9 metabolic activation: without S9, exposure time: 24 hours	0.54	1.16	122
concentration: 7.11 (µM), S9 metabolic activation: with S9, exposure time: 3-4 hours	0.2	0.94	101
concentration: 7.11 (µM), S9 metabolic activation: without S9, exposure time: 24 hours	0.5	1.78	133
concentration: 8.88 (µM), S9 metabolic activation: with S9, exposure time: 3-4 hours	0.4	1.16	97.7
concentration: 8.88 (µM), S9 metabolic activation: without S9, exposure time: 24 hours	0.76	1.5	145
concentration: 11.1 (µM), S9 metabolic activation: with S9, exposure time: 3-4 hours	0.1	1.26	120
concentration: 11.1 (µM), S9 metabolic activation: without S9, exposure time: 24 hours	0.44	1.46	108
concentration: 13.9 (µM), S9 metabolic activation: with S9, exposure time: 3-4 hours	0.28	0.92	117
concentration: 13.9 (µM), S9 metabolic activation: without S9, exposure time: 24 hours	0.42	2.3	146
concentration: 17.4 (µM), S9 metabolic activation: with S9, exposure time: 3-4 hours	0.16	0.9	91
concentration: 17.4 (µM), S9 metabolic activation: without S9, exposure time: 24 hours	0.9	2.48	95.6
concentration: 21.7 (µM), S9 metabolic activation: with S9, exposure time: 3-4 hours	0.18	1.26	94.2
concentration: 21.7 (µM), S9 metabolic activation: without S9, exposure time: 24 hours	0.7	2.24	70.1
concentration: 27.1 (µM), S9 metabolic activation: with S9, exposure time: 3-4 hours	0.24	0.89	42.8
concentration: 27.1 (µM), S9 metabolic activation: without S9, exposure time: 24 hours	2.12	2.5	67.2
concentration: 33.9 (µM), S9 metabolic activation: with S9, exposure time: 3-4 hours	0.31	1.12	71.3
concentration: 33.9 (µM), S9 metabolic activation: without S9, exposure time: 24 hours	1.42	3.32	79
concentration: 42.4 (µM), S9 metabolic activation: with S9, exposure time: 3-4 hours	0.22	0.74	69.4
concentration: 42.4 (µM), S9 metabolic activation: without S9, exposure time: 24 hours	2.09	4.1	57.6
concentration: 53 (µM), S9 metabolic activation: with S9, exposure time: 3-4 hours	0.2	0.66	94
concentration: 53 (µM), S9 metabolic activation: without S9, exposure time: 24 hours	0.79	3.22	69.7
concentration: 66.2 (µM), S9 metabolic activation: with S9, exposure time: 3-4 hours	0.22	0.98	96.6
concentration: 66.2 (µM), S9 metabolic activation: without S9, exposure time: 24 hours	0.45	2.16	54.1
concentration: 82.7 (µM), S9 metabolic activation: with S9, exposure time: 3-4 hours	0.34	1.22	95.5
concentration: 82.7 (µM), S9 metabolic activation: without S9, exposure time: 24 hours	0.53	2.08	61
concentration: 103 (µM), S9 metabolic activation: with S9, exposure time: 3-4 hours	0.38	2.54	81.6
concentration: 103 (µM), S9 metabolic activation: without S9, exposure time: 24 hours	0.5	1.83	44.5
concentration: 129 (µM), S9 metabolic activation: with S9, exposure time: 3-4 hours	0.5	3.02	80.5
concentration: 129 (µM), S9 metabolic activation: without S9, exposure time: 24 hours	0.26	1.51	57.2
concentration: 162 (µM), S9 metabolic activation: with S9, exposure time: 3-4 hours	0.64	2.92	67.7
concentration: 162 (µM), S9 metabolic activation: without S9, exposure time: 24 hours	0.38	1.46	65.8
concentration: 202 (µM), S9 metabolic activation: with S9, exposure time: 3-4 hours	0.24	2.07	62.1
concentration: 202 (µM), S9 metabolic activation: without S9, exposure time: 24 hours	0.23	1.65	48
